In PubChem BioAssay AID493208 (National Center for Advancing Translational Sciences (NCATS), 2011):
The campaign covered roughly 44,000 compounds. About 340 (0.77%) were called active. Roughly 5% stayed inconclusive and do not appear here. Calls come from the whole dose curve; as a rule, active = well fitted inhibition curve with a large enough effect; inconclusive = small, poorly fitted or top-dose-only effect; inactive = flat fitted curve, though single readings scatter. This is one part of the list.

Experiment: Acumen qHTS Assay for Inhibitors of the mTORC1 Signaling Pathway in MEF (Tsc2-/-, p53-/-) Cells: Sytravon;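 note: plate controls were DMSO for no effect and rapamycin for full effect; nearly all actives have a fitted effect of over 50% in size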
Details: phospho-rpS6 immunofluorescence/PI, 24 h; series mostly up to 38.3 µM; activity change, negative = inhibition: at the top concentration
Procedure, shortened: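 Immunofluorescence of rpS6 phosphorylation in Tsc2-/-, p53-/- MEFs after 24 h compound exposure, normalized to propidium iodide signal. Activity is expressed as % positive cells, thresholded with 7.5 nM rapamycin.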

Activity change, negative = inhibition, inactive:
Cc1cc(C)cc(NC(=O)C(=O)NCC(c2cccnc2)N2CCN(c3ccccc3)CC2)c1 (stereo not drawn) -3.2%
O=C1CN(C(=O)Nc2ccccc2Cl)C(c2ccccc2)c2c(sc3c2CCCC3)N1 (stereo not drawn) 3.6%
Cc1nn(-c2ccccc2)c2c1N(CCCC(=O)NCc1ccccc1)C(=O)CS2 -3.88%
COc1ccc(NC(=O)C(C)Sc2cc(-c3ccccc3)nc(C)n2)cc1Cl (stereo not drawn) -3.4%
COc1ccc(-c2cc(C(=O)NCCc3ccc(OC)c(OC)c3)c3ccccc3n2)cc1 14%
O=C(COc1ccc(F)cc1)Nc1ccccc1OCc1cc(=O)n2ccccc2n1 8.37%
COc1ccc(-c2noc(-c3ccc(NC4CCCCC4)c([N+](=O)[O-])c3)n2)cc1 2.86%
CCc1nn2c(=O)cc(COC(=O)c3ccc(NC(=O)C4CCCCC4)cc3)nc2s1 0%
CCC1CCc2nc3sc(C(=O)Nc4cccc(C(F)(F)F)c4)c(N)c3cc2C1 (stereo not drawn) -15.8%
CCCc1cc(=O)oc2cc(C)c3c(C(C)(C)C)coc3c12 2.78%
COc1cccc(NC(=O)c2ccc3[nH]c(C)cc(=O)c3c2)c1 -2.81%
O=C(CCn1c(=O)c2cccn2c2cccnc21)NCc1ccccc1F 0.585%
COc1ccc(S(=O)(=O)Nc2cc3c(cc2N2CCOCC2)n(C)c(=O)n3C)cc1 5.53%
COC(=O)c1ccc(Cn2nc(-c3ccc(C)cc3)ccc2=O)cc1 -4.88%
NC(=O)CSc1nnnn1-c1cccc(O)c1 -1.79%
COc1cccc(CN2C(=O)C3(SCC(=O)N3c3ccc(C(C)C)cc3)c3ccccc32)c1 (stereo not drawn) -2.11%
Cn1c(SCc2ccccc2Cl)nc2c([nH]c3ccccc32)c1=O -0.0889%
O=C(c1ccc2c(c1)OCCO2)N(Cc1cccnc1)c1nc2c(F)cc(F)cc2s1 -4.39%
COc1ccc(N(CC(=O)Nc2cc(Cl)ccc2C)S(=O)(=O)c2c(C)noc2C)cc1 -17.3%
CCOc1ccc(NS(=O)(=O)c2ccc3[nH]cc(C(=O)N4CCCCCC4)c(=O)c3c2)cc1 1.75%
CCOc1ccc(C(=O)Nc2ccc3oc(-c4ccc(Br)cc4)nc3c2)cc1 10.2%
Cc1ccccc1-c1nc(SCC(=O)NCC2CCCO2)c2c(=O)n(C)c(=O)n(C)c2n1 (stereo not drawn) 5.7%
COc1ccc(Cc2nc3ccc(C(=O)NCCCN4CCN(C)CC4)cc3o2)cc1 1.43%
COCCNC(=O)c1ccc2c(=O)n(CCOC)c(SCC(=O)c3c[nH]c4ccccc34)nc2c1 2.83%
COc1ccc(N2CCN(C(=O)c3sc4nc5n(c(=O)c4c3C)CCC5)CC2)cc1 -17.1%
Cc1cccc(CCNC(=O)CCc2c(C)nc3ncnn3c2C)c1 0.185%
CCc1nn(CC(=O)NCc2ccc(OC)c(OC)c2)c(=O)c2cc3sc(C)cc3n12 -0.394%
Cc1ccccc1C(=O)OCc1cc(=O)n2c(C)csc2n1 -3.61%
CCOC(=O)c1c(NC(=O)c2cc3nc(-c4ccccc4)cc(C(F)(F)F)n3n2)sc2c1CCC(C)C2 (stereo not drawn) -2.88%
CCCNC(=O)c1cnc2sc(N3CCCCCC3)nn2c1=O 1.46%
CCOc1ccc(C(=O)Nc2ccccc2OCc2cc(=O)n3ccccc3n2)cc1 -22.2%
Cc1cc(C(=O)Nc2cccc(F)c2)c2c(C)nn(-c3cccc(Cl)c3C)c2n1 5.53%
COc1ccccc1OCCCCn1c(-c2ccc(Cl)cc2)nc2ccccc2c1=O 0.178%
COc1ccc(CCNC(=O)c2nc(SCc3ccc(C)cc3)ncc2Cl)cc1OC 1.59%
CN(C)c1ccc(C(=O)Nc2cccc(-c3nc4cccnc4s3)c2)cc1 -4.82%
O=C(Nc1ccc(C(F)(F)F)cc1)C1CCN(c2cnccn2)CC1 -7.98%
Cc1ccc(CCNC(=O)c2cc(C)nc3c2c(C)nn3-c2ccc(C)cc2)cc1 5.29%
COc1cccc(Cn2c(SCC(=O)N(C)c3ccccc3)nc3ccccc32)c1 6.52%
COc1cccc2cc(-c3csc(-c4ccc(Cl)cc4)n3)c(=O)oc12 0.0187%
CCc1c(C)c2ccc(O)c(CN3CCN(c4ccc(OC)cc4)CC3)c2oc1=O 0.17%
Cc1ccccc1CNC(=O)c1ccc(CSc2nc3cccnc3n2Cc2ccccc2)cc1 -6.42%
COC(=O)c1ccc(Cn2c(SCc3ccccc3)nc3ccncc32)cc1 -2.45%
Cc1ccc(-c2nc(CS(=O)(=O)CC(=O)NCc3ccc(Cl)cc3)c(C)o2)cc1 4.3%
CCc1ccc(-n2c(SCc3ccccc3C)nc3[nH]ncc3c2=O)cc1 -0.102%
CC(C)c1ccc(NC(=O)CCS(=O)(=O)c2cccc3nonc23)cc1 5.12%
CCc1ccc(-n2nc(C)c3c(C(=O)Nc4cc(C)c(Cl)cc4OC)cc(C)nc32)cc1 4.82%
CCOc1ccccc1NC(=O)Cn1c(=O)n(-c2ccc(F)cc2)c(=O)c2c3c(sc21)CN(C(C)=O)CC3 -13%
O=C(CN1CCSc2ccccc21)N1CCCCC1 -0.647%
Cc1ccc(CCNC(=O)c2ccc(CNS(=O)(=O)c3ccccc3)cc2)cc1 -7.42%
CC(=O)Nc1ccc(NC(=O)c2cc3sccc3n2Cc2ccc(Cl)cc2)cc1 -3.12%
CCOC(=O)c1c(NC(=O)/C(C#N)=C/c2ccccc2)sc2c1CCC2 -2.7%
COc1cc(NC(=O)Cn2cnc3c2c(=O)n(C)c(=O)n3C)c(OC)cc1Cl 15.1%
Cc1cc(C)cc(NC(=O)Nc2ccccc2OCc2cc(=O)n3ccccc3n2)c1 0.211%
CCOc1ccccc1NC(=O)c1c(NCc2cccs2)sc2c1CCCCC2 4.1%
CCOc1cc(/C=C(\C#N)C(=O)Nc2ccc(C)cc2)ccc1OCc1cc(=O)n2nc(CC)sc2n1 3.22%
CCOc1ccc(NC(=O)c2c(NC(=O)c3ccccc3F)sc3c2CCC3)cc1 -3.69%
CCC(=O)N1CCc2cc(CNS(=O)(=O)c3ccc(NC(=O)CC(C)C)cc3)ccc21 -17.2%
CCc1c(C)sc2c1CCN(C(=O)Nc1cc(Cl)c(OC)cc1OC)C2c1ccccc1 (stereo not drawn) 0%
C#CCn1cnc2c(cnn2-c2ccc(F)cc2)c1=O 0.128%
CCC(=O)N1CCc2cc(Br)cc(S(=O)(=O)CCC(=O)Nc3ccc(C)c(F)c3)c21 1.37%
COc1ccc2c(c1)CC(C(=O)NCCCN1CCN(c3ccccc3F)CC1)CO2 (stereo not drawn) 1.52%
CCn1c(C)c(C)c2cc(C(=O)NCc3ccc(OC)cc3OC)ccc21 4.79%
CCN(CC)S(=O)(=O)c1ccc(NC(=O)c2c(C)oc3ncnc(N4CCOCC4)c23)cc1 7.22%
Cc1ccc(-c2nnc(Nc3ccc(OCC(N)=O)cc3)c3ccccc23)cc1S(=O)(=O)N(C)C 1.51%
CC(C)(C)c1ccc(C2=NC(C)(C)N(CC(=O)Nc3ccc(F)c(F)c3)C2=O)cc1 0.569%
COc1ccc(-c2onc(C)c2C)cc1S(=O)(=O)N1CCN(c2ccc(Cl)cc2)CC1 -9.51%
CC(C)OC(=O)c1c(NC(=O)COc2cccc(Br)c2)sc2c1CCCC2 15.2%
O=C(CSc1nc2c([nH]c3ccccc32)c(=O)n1-c1ccccc1)N1CCOCC1 -6.41%
CC(CNC(=O)C1CCN(S(=O)(=O)c2ccc3c(ccn3C)c2)CC1)c1ccccc1 (stereo not drawn) -7.78%
CCN(CC)CCn1c(-c2ccccc2)csc1=Nc1ccccc1 -0.648%
Nc1nonc1C(=O)NCCNCc1cccc(Cl)c1Cl -20.2%
CCCCN(CC)CCCNC(=O)C1CCCN(c2ncnc3c2nc2n3CCCCC2)C1 (stereo not drawn) -0.819%
Cc1ccc(OCCn2c(-c3ccc(Br)cc3)nc3ccccc3c2=O)cc1C -0.758%
Cc1c(CC(=O)NCCc2ccccc2F)c(=O)oc2cc(O)c(Cl)cc12 -2.44%
O=C(COc1ccccc1[N+](=O)[O-])N1CCC(c2nc3ccccc3o2)CC1 2.34%
Cc1ccc(-n2ncc3c(N(CC(C)C)CC(C)C)ncnc32)c(C)c1 -9.29%
Cc1ccc(CCNC(=O)c2c(C)oc3nc(C)nc(N4CCOCC4)c23)cc1 -1.07%
CCN(CCCNC(=O)c1cc(Nc2ccc(OC)cc2OC)nc2ccccc12)c1cccc(C)c1 2.32%
